Results: publication PMC4893733
Numbering of substitutions follows the chain as printed. These are yes or no findings as the source states them, for the method shown. For some assays here: In cells and extracts the contact can be indirect. Some binding calls cover weakened binding; strength is not graded here. For some assays here: Sequences can lack the tags named with a protein. One block for each molecule: values may come before it.

The chains behind the UniProt entries cited, without tags or fusion partners.
UniProt A0A1D8PI78: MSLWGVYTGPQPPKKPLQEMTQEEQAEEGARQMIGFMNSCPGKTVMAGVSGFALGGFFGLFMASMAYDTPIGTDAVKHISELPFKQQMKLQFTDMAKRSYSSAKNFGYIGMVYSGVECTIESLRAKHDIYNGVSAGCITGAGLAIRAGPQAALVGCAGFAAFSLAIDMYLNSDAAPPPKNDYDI

How the values were obtained:
[1] = target: T1, C. albicans Mia40 (C. albicans (endogenous in isolated mitochondria)) (UniProt O94030); assay: Mia40-linked import intermediate on non-reducing SDS-PAGE with autoradiography; radiolabeled precursor from reticulocyte lysate incubated with mitochondria isolated from wildtype S. cerevisiae or C. albicans, 25 °C or 30 °C in import buffer; samples analysed under non-reducing conditions
T1 sequence: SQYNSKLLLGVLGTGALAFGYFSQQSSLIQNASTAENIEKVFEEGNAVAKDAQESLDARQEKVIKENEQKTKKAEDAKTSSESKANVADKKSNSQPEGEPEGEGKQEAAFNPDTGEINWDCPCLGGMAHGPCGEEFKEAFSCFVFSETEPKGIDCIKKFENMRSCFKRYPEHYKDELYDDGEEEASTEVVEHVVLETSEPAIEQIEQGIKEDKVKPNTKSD

[2] = target: T2, S. cerevisiae Mia40 (S. cerevisiae (endogenous in isolated mitochondria)) (UniProt P36046); assay: as above
T2 sequence: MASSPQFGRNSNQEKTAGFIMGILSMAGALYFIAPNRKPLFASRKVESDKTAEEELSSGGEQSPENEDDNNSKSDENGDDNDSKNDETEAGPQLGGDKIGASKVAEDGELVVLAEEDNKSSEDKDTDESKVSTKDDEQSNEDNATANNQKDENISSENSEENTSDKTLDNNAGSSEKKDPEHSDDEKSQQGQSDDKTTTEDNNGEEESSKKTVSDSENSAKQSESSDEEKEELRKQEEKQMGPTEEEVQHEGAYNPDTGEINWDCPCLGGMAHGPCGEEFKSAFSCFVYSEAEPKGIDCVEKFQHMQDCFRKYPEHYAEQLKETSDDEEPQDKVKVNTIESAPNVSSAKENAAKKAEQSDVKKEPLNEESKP

[3] = target: T3, His-tagged human TIMM22 wildtype (human) (UniProt Q9Y584); assay: pull-down; affinity purification via HisTIMM22 on Ni-NTA from HEK293 cells solubilised in 1% digitonin, 20 mM Tris-HCl pH 7.4, 100 mM NaCl, 20 mM imidazole, 50 mM IAA; 1 h at 4 °C; eluted with 400 mM imidazole; Western blot
T3 sequence: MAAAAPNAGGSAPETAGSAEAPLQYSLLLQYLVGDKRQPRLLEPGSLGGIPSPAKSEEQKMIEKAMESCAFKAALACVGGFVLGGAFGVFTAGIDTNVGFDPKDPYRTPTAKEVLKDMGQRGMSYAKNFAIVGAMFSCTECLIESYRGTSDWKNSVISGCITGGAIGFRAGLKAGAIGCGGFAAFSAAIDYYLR

[4] = target: T4, His-tagged human TIMM22-C138S (human) (UniProt Q9Y584); assay: as above
T4 sequence: T3 sequence with C138S

[5] = target: T5, His-tagged human TIMM22-C160S (human) (UniProt Q9Y584); assay: as above
T5 sequence: T3 sequence with C160S

binding [1]: binds
Molecule: C. albicans Tim22, radiolabeled precursor (from UniProt A0A1D8PI78 1-184)

binding [2]: binds
B1: S. cerevisiae Tim9, radiolabeled precursor (protein, UniProt O74700 1-87)
chain: MDALNSKEQQEFQKVVEQKQMKDFMRLYSNLVERCFTDCVNDFTTSKLTNKEQTCIMKCSEKFLKHSERVGQRFQEQNAALGQGLGR
modifications: radiolabeled with [35S]methionine

binding [3]: binds
binding [4]: binds
binding [5]: no binding
B2: native human TIMM22 (protein, UniProt Q9Y584 1-194)
chain: T3 sequence
